Reference: US6172038A, “Antipathogenic peptides and compositions comprising them” (priority 1996, dated 2001)
Part of at least one peptide drawing is inferred or uncertain, most often the ends.

Key:
Assay type in all cases: cell-based
Escherichia coli D21 = experiment: Antibacterial activity (MIC), growth inhibition in 96-well plates
[1] = system: Acinetobacter calcoaceticus Ac11; experiment: as above; conditions: 100% inhibition of growth after 18-20 h at 37° C.
Bacillus megaterium Bm11 = experiment: as above; conditions: 100% inhibition of growth after 18-20 h at 37° C.
[2] = system: Pseudomonas aeruginosa ATCC 27853; experiment: Antibacterial activity (MIC), growth inhibition in 96-well plates; also synergy with tetracycline
Protocol: (viii) Antibacterial activity of the peptides.
Antibacterial activity of the mixtures was determined as described in Experimental procedures, section (xii).

[3] = system: Bacillus subtilis ATCC 6051; experiment: Antibacterial activity (MIC), growth inhibition in 96-well plates; conditions: 100% inhibition of growth after 18-20 h at 37° C.
mouse adenocarcinoma = experiment: Anticancer activity, Trypan blue vital staining; conditions: 100% inhibition after 1 h incubation
[4] = system: P. aeruginosa and E. coli; experiment: Effect of pooled human serum on antibacterial activity
Protocol: (vi) Preparation of serunl Blood was collected from five volunteers and allowed to clot at room temperature for 4 h. The blood was then centrifuged for 15 min at 1500 g, and the serum was removed and pooled. The serum complement was inactivated by heating at 56° C. for 30 min.
(viii) Antibacterial activity of the peptides. The antibacterial activity of the diastereomers was examined in sterile 96-well plates (Nunc F96 microtiter plates) in a final volume of 100 μL as follows: Aliquots (50 μl) of a suspension containing bacteria at a concentration of 10^6 Colony-Forming Units (CFU)/ml LB (Lauria broth) medium were added to 50 μL of water or 66% pooled normal human serum in PBS, containing the peptide in 2-fold serial dilutions. Growth inhibition was determined by measuring the absorbance at 492 nm with a Microplate autoreader El309 (Bio-tek Instruments), following incubation for 18-20 h at 37° C. […] The bacteria used were: Escherichia coli D21, Pseudomonas aeruginosa ATCC 27853, Acinetobacter calcoaceticus Acl1, Salmonella typhimurium LT2, Bacillus megaterium Bml1, Micrococcus luteus ATCC 9341, Bacillus subtilis ATCC 6051.

[5] = 100% inhibition of growth after 18-20 h at 37° C.

## CC(C)C[C@H](NC(=O)[C@H](CCCCN)NC(=O)[C@@H](CC(C)C)NC(=O)[C@@H](CC(C)C)NC(=O)[C@H](CC(C)C)NC(=O)[C@@H](N)CCCCN)C(=O)N[C@@H](CCCCN)C(=O)N[C@H](CC(C)C)C(=O)N[C@@H](CCCCN)C(=O)N[C@H](CC(C)C)C(=O)N[C@@H](CC(C)C)C(=O)N[C@@H](CCCCN)C(N)=O [Peptide 24]
Escherichia coli D21; 0% Serum
  Minimal Inhibitory Concentration E. coli (D21) 0% Serum: 7 µM
Escherichia coli D21; 33% pooled human serum
  Minimal Inhibitory Concentration E. coli (D21) 33% Serum: 7 µM
Escherichia coli D21; [5]
  Minimal Inhibitory Concentration E. coli (D21): 7 µM
[1]
  Minimal Inhibitory Concentration A. calcoaceticus (Ac11): 20 µM
Bacillus megaterium Bm11
  Minimal Inhibitory Concentration B. megaterium (Bm11): 0.25 µM
[2]; 0% Serum
  Minimal Inhibitory Concentration P. aeruginosa (ATCC-27853) 0% Serum: 10 µM
[2]; 33% pooled human serum
  Minimal Inhibitory Concentration P. aeruginosa (ATCC-27853) 33% Serum: 10 µM
[2]; [5]
  Minimal Inhibitory Concentration P. aeruginosa (ATCC 27853): 10 µM
[3]
  Minimal Inhibitory Concentration B. subtilis (ATCC 6051): 2 µM
Mouse adenocarcinoma
  Minimal Inhibitory Concentration mouse adenocarcinoma: 80 µM
[4]
  antibacterial activity in the presence of pooled human serum: retained its antibacterial activity
